# ChEMBL document CHEMBL4513137, “CO-ADD screening of University of Manchester (UK) compounds”
# The list shows a part of the results. Results with a measured potency or affinity are listed apart.
# System: Acinetobacter baumannii
# Details: Concentration 32 ug.mL-1; ASSAY_TEST Inhibition of Bacterial Growth; detection method Absorption (OD600); MEDIA CAMHB; plate type 384well; NBS; CORNING #3640; time 18 hr
row,Compound,Inhibition
1,COc1cccc(N(C)c2cccc(OC)c2-c2ccc([N+](=O)[O-])cc2C)c1,-6.26%
2,O=[N+]([O-])c1ccc(-c2cccc3c2[nH]c2ccccc23)cc1,-15.36%
3,c1ccc(Nc2ccccc2-c2ncccn2)cc1,-5.33%
4,Clc1cc(Br)cc(Cl)c1-c1ccccc1Nc1ccccc1,-16.59%
5,CC[C@@H](Nc1ccccc1-c1c(Cl)cc(Br)cc1Cl)c1ccccc1,-6.43%
6,Cc1ccccc1Nc1ccccc1-c1ccc([N+](=O)[O-])cc1,-14.6%
7,Cc1cccc(C)c1Nc1ccccc1-c1ccccc1[N+](=O)[O-],-17.42%
8,O=[N+]([O-])c1ccc(-c2c(Nc3ccccc3)ccc3ccccc23)cc1,-17.68%
9,O=[N+]([O-])c1ccc(-c2ccccc2Nc2ccccc2)cc1F,-12.31%
10,COc1cc([N+](=O)[O-])ccc1-c1ccccc1Nc1ccccc1,-16.17%
11,O=[N+]([O-])c1ccc(-c2ccccc2Nc2ccccc2Br)cc1,-12.36%
12,Cc1cc(C)c(Nc2ccccc2-c2ccc([N+](=O)[O-])cc2)c(C)c1,-1.52%
13,O=[N+]([O-])c1ccc(-c2ccccc2Nc2ccccc2)cc1C(F)(F)F,-6.23%
14,O=[N+]([O-])c1cc(Cl)c(-c2ccccc2Nc2ccccc2)c(Cl)c1,-19.92%
15,CC(=O)c1ccc(-c2ccccc2Nc2ccccc2)cc1,-10.5%
16,COc1cccc(Nc2ccccc2)c1-c1ccc([N+](=O)[O-])cc1,-8.08%
17,O=[N+]([O-])c1ccc2c3ccccc3n(-c3ccccc3)c2c1,-19.11%
18,O=[N+]([O-])c1ccc(-c2ccccc2N(Cc2ccccc2)c2ccccc2)cc1,-12.85%
19,O=[N+]([O-])c1ccc(-c2ccccc2Nc2ccccc2)c(Cl)c1,-16.95%
20,COc1cc([N+](=O)[O-])ccc1-c1c(Nc2ccccc2)cccc1OC,-7.71%
21,O=[N+]([O-])c1ccc(-c2c(Nc3ccccc3)cccc2-c2ccccc2)cc1,-9.65%
22,O=[N+]([O-])c1ccc(-c2ccccc2Nc2ccccc2)cc1,1.78%
23,N#Cc1ccc(-c2ccccc2Nc2ccccc2)cc1,-20.05%
24,Cc1cc([N+](=O)[O-])ccc1-c1ccccc1N(C)c1ccccc1,-0.95%
25,COc1cccc(Nc2ccccc2)c1-c1c(Cl)cc(Br)cc1Cl,-17.38%
26,COc1ccc(Nc2ccccc2-c2ccc([N+](=O)[O-])cc2)cc1,-10.99%
27,CN(c1ccccc1)c1ccccc1-c1ccc([N+](=O)[O-])cc1,-8.77%
